This is an account of results in article PMC4336329 (PLoS ONE, 2015).

Each structure is given as a SMILES string. In all, about 310,000 compounds went through this assay and about 14,000 (4.5%) showed an effect of 50% or more. Effects have a minus sign here. Some of the results follow.
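Further: peak tail current of the secondary pulse compared with the same well before compound.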

Chain of human ether-à-go-go-related gene (hERG) potassium channel (Q12809 whole entry, looked up): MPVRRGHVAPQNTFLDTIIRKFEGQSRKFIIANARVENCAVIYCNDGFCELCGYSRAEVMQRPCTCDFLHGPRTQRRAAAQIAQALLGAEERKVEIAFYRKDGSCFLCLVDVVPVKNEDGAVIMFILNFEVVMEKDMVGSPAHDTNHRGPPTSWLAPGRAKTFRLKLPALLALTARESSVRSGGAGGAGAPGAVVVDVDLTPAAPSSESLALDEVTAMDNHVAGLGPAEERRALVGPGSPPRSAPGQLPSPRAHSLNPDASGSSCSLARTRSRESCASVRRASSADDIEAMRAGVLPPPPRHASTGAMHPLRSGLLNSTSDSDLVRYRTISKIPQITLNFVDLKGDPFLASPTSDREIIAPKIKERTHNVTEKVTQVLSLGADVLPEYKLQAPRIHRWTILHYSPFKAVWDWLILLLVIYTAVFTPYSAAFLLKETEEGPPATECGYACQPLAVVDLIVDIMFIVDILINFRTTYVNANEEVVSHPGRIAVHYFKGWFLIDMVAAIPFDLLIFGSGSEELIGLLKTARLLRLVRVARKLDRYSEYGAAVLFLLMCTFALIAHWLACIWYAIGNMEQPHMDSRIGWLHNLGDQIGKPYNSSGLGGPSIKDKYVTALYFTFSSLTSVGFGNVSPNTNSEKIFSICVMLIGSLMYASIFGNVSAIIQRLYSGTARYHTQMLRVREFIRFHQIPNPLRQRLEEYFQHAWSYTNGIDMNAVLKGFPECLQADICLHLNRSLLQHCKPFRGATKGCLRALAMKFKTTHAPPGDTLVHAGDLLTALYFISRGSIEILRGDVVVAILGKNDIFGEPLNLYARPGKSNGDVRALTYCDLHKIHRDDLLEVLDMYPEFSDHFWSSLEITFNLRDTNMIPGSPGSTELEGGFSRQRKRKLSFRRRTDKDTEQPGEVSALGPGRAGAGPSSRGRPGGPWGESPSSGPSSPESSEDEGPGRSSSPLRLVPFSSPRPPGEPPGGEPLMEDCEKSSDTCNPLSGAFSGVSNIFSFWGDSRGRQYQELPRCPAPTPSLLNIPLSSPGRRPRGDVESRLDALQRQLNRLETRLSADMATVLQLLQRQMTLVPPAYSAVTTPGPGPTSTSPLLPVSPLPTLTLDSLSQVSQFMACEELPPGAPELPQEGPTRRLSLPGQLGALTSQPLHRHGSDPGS

This test concerns the target human ether-à-go-go-related gene (hERG) potassium channel (human, UniProt Q12809). In words: primary screen, population patch clamp on CHO cells stably expressing hERG. As to the method: Briefly, Chinese hamster ovary (CHO) cells stably expressing the hERG channel were dislodged from tissue culture flasks and dispensed into PPC plates. […] During the recording, background leak currents were estimated by a 100 ms step to -80 mV from an initial holding potential of -70 mV and subtracted from the subsequent current measurement. The campaign was conducted in two phases using slight differences in recording protocol. In the first phase, the initial voltage pulse used a 100 ms step to -30 mV from a holding potential of -70 mV, a 2 s conditioning step to +25 mV, and a 2 s test step to -30 mV. During the second phase of the screen, the potential during the conditioning step was raised to +45 mV. In both phases of the campaign, a secondary voltage pulse was applied using the same parameters as the second phase initial pulse. The initial and secondary pulses were applied in the absence of compound, and upon application of 1 μM and 10 μM test concentrations. […]
As to `COC(=O)c1[nH]c2ccc(C)cc2c1NC(=O)Oc1ccccc1`, the “hERG current change (%, negative = inhibition) at 10uM” value turned out to be 14.5%.

With `CCCc1nnc(SCC(=O)Nc2ccccc2F)o1`, the “hERG current change (%, negative = inhibition) at 10uM” value is 4.74%. The result for `O=C(COc1ccc(Cl)cc1)Nc1ccc2[nH]ncc2c1` reads 14.4%; that for `Cc1nc2ccccc2n1CC(=O)OCC(=O)NCCc1ccccc1`, 22.1%. Next, `CC(=O)N1CCN=C1SCc1ccc(C(F)(F)F)cc1`: -10.5%; `CCOc1cccc(SCc2noc(C(=O)NC(C)C)c2C(=O)O)c1`: -0.245%; `CCOC(=O)c1c(NC(=O)C2CCCCC2)sc2c1CCN(C(C)C)C2.Cl`: -81.6%. Next, `Cc1ccc(OCCSc2nc3ccccc3n2CC(=O)O)cc1`: 22.4%. As for `CCOC(=O)N1CCN(C(=O)c2ccc(C)c(S(=O)(=O)N3CCCCC3)c2)CC1`, the “hERG current change (%, negative = inhibition) at 10uM” value was -46%. The result for `CCn1cnc2sc(C(=O)O)c(C)c2c1=O` reads 10.9%.

Consider `COc1cc(/C=N/n2c(C)nc3ccccc3c2=O)ccc1O`, for which the “hERG current change (%, negative = inhibition) at 10uM” value came out at 4.55%. On to `O=C(CSc1nncs1)NNC(=O)c1ccco1`, for which the “hERG current change (%, negative = inhibition) at 10uM” value worked out at 13.2%. Consider `CCOC(=O)/C(C#N)=C/C=C1\C=Cc2ccccc2N1CC`, for which the “hERG current change (%, negative = inhibition) at 10uM” value amounted to 7.18%.

On to `Cc1ccc(CNC(=O)C2CC3Cn4c(nc5cc(Cl)c(Cl)cc54)C3N2C)o1` (stereo not drawn), for which the “hERG current change (%, negative = inhibition) at 10uM” value is on record as -58.5%.

As to `CCCNC(=O)C1(CC2CC(c3ccccc3)=NO2)CCN(C(=O)c2cc(OCC)c(OCC)c(OCC)c2)CC1` (stereo not drawn), the “hERG current change (%, negative = inhibition) at 10uM” value is on record as -34.6%. Next, `CCOC(=O)c1c(/N=C/C2C(=O)CC(C)(C)CC2=O)sc2c1CCCC2`: 13.1%; `O=C(O)c1cccc(S(=O)(=O)Nc2ccc3oc(=O)sc3c2)c1`: 10.7%.

Consider `CCc1ccc(C(=O)/C=C/c2ccc([N+](=O)[O-])o2)cc1`, for which the “hERG current change (%, negative = inhibition) at 10uM” value was -5.07%. Next, `Cc1c(C)c2ccc(OCC(=O)NCCN3CCOCC3)cc2oc1=O`: 16.2%. Take `CN(C(=O)c1c[nH]c(=O)cc1C(F)(F)F)c1ccc(Cl)cc1`: the “hERG current change (%, negative = inhibition) at 10uM” value was 15%. Turning to `CN(C)c1oc(-c2ccco2)nc1S(=O)(=O)c1ccc(Br)cc1`, the “hERG current change (%, negative = inhibition) at 10uM” value is listed as -12.1%. Next, `C#CCOCCOCCOCCNc1nc(N2CCN(C(=O)Cn3cc(CCC[NH+]=C(N)N)nn3)CC2)nc(N2CCN(C(=O)[C@H]([C@@H](C)CC)n3cc(CCCC[NH3+])nn3)CC2)n1.[Cl-]`: 2.19%; `Oc1ccc(/C=N/NC2=NCCCCC2)cc1`: -16.2%; `COc1ccccc1CNC(=O)CN1C(=O)NC2(CCCC2)C1=O`: 7.39%. Next, `ClC1(Cl)CC1Cn1cnc2ccccc21` (stereo not drawn): 27.8%. Next, `O=C(/C=C/c1ccc2ccccc2n1)c1cc(Cl)ccc1O`: 18%; `Cl.O=C(O)c1ccc(CNCc2ccc(F)cc2)cc1`: 16.4%. Turning to `CNC(=O)Oc1ccc2ncccc2c1`, the “hERG current change (%, negative = inhibition) at 10uM” value is recorded as -7.61%. The result for `O=C(c1ccccc1C(=O)N1CCN(c2ccccc2)CC1)N1CCN(c2ccccc2)CC1` reads -29.7%; that for `COc1cc(NC(=S)NC(=O)c2cccs2)ccc1NC(=O)C(C)C`, -6.81%.

With `CCOc1ccc(CNCCNC(=O)c2nonc2N)cc1.Cl`, the “hERG current change (%, negative = inhibition) at 10uM” value is -37.1%.

As for `CCCCC(=O)Nc1ccc2c(c1)nc(CCN1CCN(C)CC1)n2C`, the “hERG current change (%, negative = inhibition) at 10uM” value stood at 20%. On to `O=C(COC(=O)Cc1c(Cl)cccc1Cl)NCCC1=CCCCC1`, for which the “hERG current change (%, negative = inhibition) at 10uM” value is -12.2%. For `Cn1c(N2CCCC2)nc2c1c(=O)n(Cc1ccc(Cl)cc1)c(=O)n2C`, the “hERG current change (%, negative = inhibition) at 10uM” value is given as -68.6%.

For the compound `Nc1nc(C23CC4CC(CC(Cl)(C4)C2)C3)cs1`, the “hERG current change (%, negative = inhibition) at 10uM” value is 5.08%. Next, `Nc1nc(NC(=O)Cc2ccccc2)nn1-c1ccccc1`: 0.691%. Next, `CN(C)C(=S)c1ccc2ccccc2n1`: 17.1%. Next, `CCC(CO)Nc1ncnc2c1cnn2-c1ccc(OC)cc1` (stereo not drawn): 4.38%.

With `Cc1ccc(S(=O)(=O)Nc2n[nH]nc2C(=O)NC2CCCCC2)cc1`, the “hERG current change (%, negative = inhibition) at 10uM” value is reported as 15.2%. The result for `O=C(O)CC/C(=N/NC(=O)c1ccc(-c2ccccc2)cc1)c1ccccc1` reads 2.91%; that for `O=C(/C=C/c1ccc(Cl)cc1Cl)c1ccc[nH]1`, 6.08%; that for `O=S(=O)(NCc1ccccc1)c1cccc(S(=O)(=O)N2CCOCC2)c1`, -35.8%. `O=C(COC(=O)c1ccc[nH]c1=O)NC1CCCCCC1`: the “hERG current change (%, negative = inhibition) at 10uM” value was 46.2%.

Consider `Cc1cccc(N2CCN(C(=O)CSc3nnnn3C3CC3)CC2)c1C`, for which the “hERG current change (%, negative = inhibition) at 10uM” value is -25.2%.

Consider `Cc1cccc(-c2nsc(SCC(=O)c3ccc(Cl)cc3)n2)c1`, for which the “hERG current change (%, negative = inhibition) at 10uM” value is listed as 23.3%.
